Measurements taken from PubChem BioAssay AID686970 (National Center for Advancing Translational Sciences (NCATS), 2013).
Hit rate of the full screen: of about 360,000 compounds, about 6,000 (1.7%) were called active. This list was built around the results that the source calls inconclusive (neither active nor inactive); the mix of calls is not that of the screen. Calls follow the shape of the dose curve; as a rule, active = well fitted cell-killing curve with a large enough effect; inconclusive = small, poorly fitted or top-dose-only effect, or effect the other way; inactive = flat fitted curve, though single readings scatter. Potencies of inconclusive entries are left out as doubtful fits.

Experiment: qHTS for induction of synthetic lethality in tumor cells producing 2HG: qHTS for the HT-1080-NT fibrosarcoma cell line;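 also: NT is the 2HG producing partner of a matched IDH1 knockdown line; nearly all actives have a fitted effect of over 55% in size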;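 as to activity, negative = less viability: 0% = DMSO-treated cells and -100% = media-only wells without cells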
Conditions: HT-1080-NT fibrosarcoma viability, CellTiter-Glo ATP luminescence, 48 h; activity, negative = less viability: at 46.1 µM (top of the series) unless noted
Procedure, shortened: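 Read-out is CellTiter-Glo luminescence after 10 minutes at room temperature, following 48 hours' compound treatment of HT-1080-NT cells (750 cells/well, RPMI, 5% FBS, 37 degrees C).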
Potency is read from the fitted curve at half-maximal effect; tags tell the direction and shape of the fitted curve.

| Structure (SMILES) | Potency | activity, negative = less viability |
| --- | --- | --- |
| Clc1cccc(-c2nc(NCC3CCCO3)c3ccccc3n2)c1 (stereo not drawn) | inconclusive [cytotoxic, single point] | – |
| Cc1cc2nc(C(C)(C)C)c(Cc3ccsc3)n2c(C)c1Br | active: 29.1 µM | – |
| Cc1ccc(OCc2nnc(SCC(=O)c3ccccc3)n2-c2ccccc2)cc1 | inconclusive [cytotoxic, single point] | – |
| COCC1CCN(C(=O)c2cc(COc3cc(C)c(Cl)c(C)c3)on2)C1 (stereo not drawn) | – | inactive: -1.31% |
| COc1ccccc1C(=O)Nc1nc(-c2ccc(S(=O)(=O)N3CCOCC3)cc2)cs1 | inconclusive [cytotoxic, partial curve] | – |
| Cn1nnnc1SCc1ccc(C(=O)Nc2nccs2)cc1 | inconclusive [cytotoxic, single point] | – |
| Clc1ccccc1Cn1nnc2c(N3CCCC3)ncnc21 | inconclusive [cytotoxic, single point] | – |
| CCc1ccc(C(=O)NNc2ccc(F)cc2)cc1 | inconclusive [cytotoxic, full curve] | – |
| COc1ccc(NC(=O)N(C)[C@H]2C[C@H]3c4[nH]c5ccc(-c6ccc7c(c6)OCO7)cc5c4CCN3C[C@H]2[C@H](C)O)cc1 | active: 23.1 µM | – |
| CC(Sc1ccc(Cl)cc1)C(=O)NNC(=O)c1ccccc1O (stereo not drawn) | – | inconclusive: -30.4% [cytotoxic] |
| O=C(N/N=C/C=C/c1ccccc1)c1cccc(Br)c1 | inconclusive [cytotoxic, single point] | – |
| COC(=O)c1ccc2nc(C3CCCCC3)c(Cc3ccccc3C(F)(F)F)n2c1 | inconclusive [cytotoxic, single point] | – |
| C[C@@H]1CCC(=O)N(C[C@@H](C)CC#N)CC1 | inconclusive [rising, partial curve, poor fit] | – |
| COc1cccc(NC(=O)Cn2nnc(C(=O)Nc3cc(Cl)ccc3OC)c2N)c1 | inconclusive [cytotoxic, single point] | – |
| OC(CN1CCCCC1)Cn1c2ccc(Cl)cc2c2cc(Cl)ccc21 (stereo not drawn) | active: 20.6 µM | – |
| CCc1ccc2[nH]c(=O)c(CN(CCCN3CCOCC3)C(=O)Nc3ccc(Cl)cc3)cc2c1 | inconclusive [cytotoxic, partial curve] | – |
| Cc1ccc(C(=O)N/C(=C/c2ccc(Cl)cc2)C(=O)N2CCOCC2)cc1 | – | inactive: -6.85% |
| NC(=O)C1CCN(C2=C(NS(=O)(=O)c3ccc(Br)cc3)C(=O)c3ccccc3C2=O)CC1 | inconclusive [cytotoxic, single point] | – |
